Reference: the RNAGym collection of RNA variant scans (doi:10.7554/elife.90254)
The source gives no read counts; variants with many changes may rest on few reads.

B1: LINE1-mini (parent)
chain: GGCAGAGCUCAACACAGCGUGGCAAAGUGGCUGUGGCUAGACUGCC

Variants of: B1
Experiment: self-cleavage, relative activity (ratio to wild type); higher = more cleavage; in vitro, sequencing; the parent is a self-cleaving ribozyme

Variant | self-cleavage
C3G G30C G35U | 0.1
C3G G30U U43A | 1.83
C3G G33A A39C | 0.03
C3G G33A G35A | 0.02
C3G G33C A39U C46G | 0.04
C3G G35A G36A | 0.14
C3G G35C G40C G44C | 0.02
C3G G35U A41C C42G | 0.05
C3G G35U C45A | 0.03
C3G G35U U38G | 0.36
C3G G36C A39G C46U | 0.23
C3G G36U A41G | 0.06
C3G G36U G40C | 0.09
C3G U9A A14C A25C G40U | 0.04
C3G U9A A16U G33U | 0.05
C3G U9A A39C | 0.03
C3G U9A C10G U34A A41U | 0.05
C3G U9A C10U U20G U34A C46G | 0.06
C3G U9A C13A A14G C15U G19C G36U A41U | 0.13
C3G U9A C45G | 0.29
C3G U9A G22A | 0.25
C3G U9A U20A | 0.04
C3G U9A U34G A39C C42A G44A | 0.05
C3G U9C A12G A14G | 0.02

Variant | self-cleavage
C3G U9C C31G G33U | 0.01
C3G U9C G21C G22A A25G U28A G30U U43A | 0.01
C3G U9G A12G G21U C37A A39G | 0.03
C3G U9G A14G G17C | 0.37
C3G U9G A14U | 0.13
C3G U9G C10G C13G A25U | 0.02
C3G U9G G19C G21C A24C C37U G40A U43G | 0.13
C3G U9G G29U A41U | 0.14
C3G U20A A39U | 0.06
C3G U20A G21A C23U G33U A39G G40U | 0.06
C3G U20A G21A C46A | 0.16
C3G U20A U28C G36C | 2.15
C3G U20C C42U | 0.11
C3G U20C U32C | 0.09
C3G U20G A24C | 0.09
C3G U20G C42A U43A | 0.04
C3G U20G G22A G29C | 0.1
C3G U20G G29U A39G | 0.42
C3G U20G G44U | 0.91
C3G U28C A41C | 0.01
C3G U28G G44U | 0.45
C3G U32A A41G | 0.04
C3G U32A G40U C45U | 0.07
C3G U32G G40C U43A | 0.05

Variant | self-cleavage
C3G U32G U38A C42A | 0.11
C3G U34C C42A | 0.21
C3G U34C G36A | 0.09
C3G U34C G36C | 0.07
C3G U38A G40C U43A | 0.11
C3G U38G A39G | 0.01
C3G U38G U43C | 0.03
C3U A4C A6U A25C U38G C45A | 0.02
C3U A4C A11C G22U G44U | 0
C3U A4C A12G | 0.09
C3U A4C A16C G30U C46U | 0.05
C3U A4C A25U U34A | 0.12
C3U A4C A26U G33U C46G | 0.05
C3U A4C C13A A39G | 0.17
C3U A4C C23A C31A G33C G40A | 0.25
C3U A4C C31U G33A | 0.07
C3U A4C G5A C42U | 0.13
C3U A4C G5C C8A U20A A26U | 0.14
C3U A4C G5C C13A C31A | 0.45
C3U A4C G5U G33A C37A | 0.06
C3U A4C G19A G33U G35A | 0.1
C3U A4C G21U G27U | 0.11
C3U A4C G35A | 0.53
C3U A4C G35A A39C G40C U43A | 0.08

Variant | self-cleavage
C3U A4C U9C G22A A26G G30U C42A | 0.01
C3U A4C U9G | 0.5
C3U A4G A26U U28G G36U A41U | 0.07
C3U A4G C8A | 0.13
C3U A4G C8G A12U G17U G30U | 0.07
C3U A4G C8U G22A U34C U43A | 0.19
C3U A4G C8U U9C C15A C23U A25U G30C G35A | 0.86
C3U A4G C10U G40C | 0.05
C3U A4G C15G A24G U43G | 0.1
C3U A4G C31A U34G | 0.1
C3U A4G G5A | 0.07
C3U A4G G7C C45A | 0.18
C3U A4G G7U C10U U43A | 0.03
C3U A4G G7U U32G | 0.07
C3U A4G G17A C45U C46U | 0.01
C3U A4G G19C G30C G35U | 0.04
C3U A4G G21A G29A G36U C37A | 0.03
C3U A4G G22A A39U | 0.18
C3U A4G G22U G33U | 0.12
C3U A4G G29U G33U | 0.21
C3U A4G G33C U34G G44U | 0.06
C3U A4G G40U C45G | 0.33
C3U A4G U20A U32G G35U | 0.07
C3U A4G U20G A26G A41U | 0

Variant | self-cleavage
C3U A4G U34C G36A C46U | 0.04
C3U A4G U43G C46U | 0.02
C3U A4U A6C A12U C31U | 0.03
C3U A4U A6G C10U U32G | 0.04
C3U A4U A6G U9C U20G G29C G33A C42U | 0.01
C3U A4U A11U G21U C46G | 0.02
C3U A4U A12G G35U G36C | 0.07
C3U A4U C8U C13G A14U C15G | 0.65
C3U A4U C10G U32G U43G | 0.01
C3U A4U C13A C15G G19A G36C G44C | 0.01
C3U A4U G7U G22C A41G | 0.33
C3U A4U G17U C37G U38A | 0.02
C3U A4U G19C G35U C37A | 0.08
C3U A4U G27C C37G | 0.04
C3U A4U G29A A39C | 0.07
C3U A4U U9G C15A | 0.15
C3U A6C A11C C18G U20A U34C C37U | 0.01
C3U A6C A11G A16G C37A | 0.01
C3U A6C A12C C15G C42G | 0.04
C3U A6C A14C G29A U34A A39C | 0.14
C3U A6C A16G C18U | 0.44
C3U A6C C8A C10A C13U U32G | 0.02
C3U A6C C15G G17U | 0.02
C3U A6C C15U | 0.11

Variant | self-cleavage
C3U A6C G7U | 0.11
C3U A6C U9A C13U A14U G33A | 0.06
C3U A6G A11C C13U G19U | 0.01
C3U A6G A25C | 0.15
C3U A6G A41U | 0.1
C3U A6G C8A | 0.17
C3U A6G C18G G40U G44U C46U | 0.02
C3U A6G C42A | 0.11
C3U A6G G7A U9C G33A G35U | 0.02
C3U A6G G7U C10G A12G U38C | 0
C3U A6G G7U U28A | 0.05
C3U A6G G21U | 0.14
C3U A6G G22U G27A U38C G40U C42A | 0.08
C3U A6G G27A C42A | 0.02
C3U A6G G30C | 0.41
C3U A6G G36A | 0.1
C3U A6G U38G C46A | 0.01
C3U A6U A11G U43G G44U | 0.02
C3U A6U A12C G17A C45G | 0
C3U A6U A16U G40U C42U | 0.12
C3U A6U C13A A24C G30A U43A | 0.27
C3U A6U C13U A14U U20A G30A G33A A39U C46U | 0.08
C3U A6U C23A C37G G44U | 0.02
C3U A6U C46G | 0.41

Variant | self-cleavage
C3U A6U G27C G30C C37G | 0.1
C3U A6U U34A U43A | 0.07
C3U A6U U38A | 0.19
C3U A11C A12C A16G G33A G44U | 0.01
C3U A11C A16C U20G A24U G33U | 0.02
C3U A11C A24U G33U | 0.01
C3U A11C C13G G35U C45U | 0.02
C3U A11C G19A A41C | 0
C3U A11C G19U | 0.02
C3U A11C G19U G21A | 0.15
C3U A11C G29U | 0.05
C3U A11G C13G U20A C23A | 0.03
C3U A11G C13U A25U | 0.08
C3U A11G C15A | 0.05
C3U A11G G17U G29A | 0.03
C3U A11G G19C | 0.07
C3U A11U A12U | 0.06
C3U A11U C15A C18A C45U | 0.01
C3U A11U C15U G17U G27A G29C C42A | 0.03
C3U A11U C23A U38A | 0.03
C3U A11U C37U | 0
C3U A11U G30C | 0.02
C3U A11U G35A | 0.03
